Sequences with one replicate were seen in a single cluster, so their values are uncertain.
System: ATP
Assay: switch fluorescence ratio, 500 uM ATP over buffer (Cy3 cluster intensity, sum of 5 cycles each) (fold (ratio)); higher = stronger signal-on switching upon ATP binding; sequences stand for … in TCGTCGGCAGCGTCAGATGTGTATAAGAGACAGTTTTTTTTTTTTTTTTTTTTTTTTT…TC
Settings: aptamer strand: ATP DNA aptamer (quencher-CACCTGGGGGAGTATTGCGGAGGAAGG + anchor), 100 nM annealed; ATP concentration: 500 uM; one replicate
Summary of the method: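 Exposure to 500 uM ATP lasted 15 min at 22 °C before imaging, and a selection-buffer image was taken beforehand, for Cy3-labelled switching-strand clusters on a modified Illumina MiSeq flow-cell annealed to 100 nM quencher-labelled ATP aptamer. Five buffer/ATP cycles were run with NaOH stripping and re-annealing between them. The fluorescence ratio per cluster is summed target-cycle over summed buffer-cycle Cy3 intensity, averaged per switch-domain sequence. Clusters outside 100-1000 RFU were excluded.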

Sequence | switch fluorescence ratio
GGGGTGGGCC | 0.999
CGGTGACTTT | 0.976
AAAAACCACC | 1.21
GTTTTCGGAA | 1.06
TGTCGATGAG | 0.989
CATATAATCG | 0.965
GCACCTAGAT | 1.04
TATTATGCA | 1.01
ACAGGGTTCC | 1.03
ACCGCGAAGC | 1.1
AGTTGTTCTT | 0.959
ATCGGATGT | 0.969
GTAGAGTAGA | 0.995
AGATTTTTAG | 0.967
TGTCATAGCC | 0.978
GCGCTCCGAT | 1.24
TAGGCTCCTG | 1.01
AAGTGATACA | 0.967
GTTACTT | 1.05
CGTGCGATGG | 1.19
TCAGGTCAT | 1.01
ACTGCGCTT | 1.6
CCTGTTGGGC | 1.08
ACATTGGTAC | 1.08
GACACCACGC | 1.65
ATTAACTCTA | 1.02

Sequence | switch fluorescence ratio
TGGTGCTGAA | 1.01
TAAGTAATAT | 2.3
TAAGCGTATC | 1.02
TATCGGCGTT | 0.992
CAACTCAGGC | 1
GGTGGCCGAA | 0.966
TAGACGATA | 1
TGGTGGGTAG | 1
CCTGTTCCCT | 2.15
TGAAGGACAG | 1.07
CAGGCGTGAC | 1.06
CGATCATGTT | 1.01
CGGAGTGTTT | 1.04
ACTGGGCCTA | 1.01
AACAAAGGT | 0.996
CTTATTGTAT | 0.998
CGGGGCGCTT | 1.02
AAAAGGAAAC | 0.98
ATGACTTGGA | 1.03
CGGATTATGT | 1.01
CTTTATCAAA | 0.962
GTGTGGGCTA | 1.06
CTGGTTTACG | 1.03
ACCCTTACC | 1.38
GACGCTAATG | 1.18
ATGTCATAAG | 1

Sequence | switch fluorescence ratio
GGCTATTCGG | 0.989
AACATGCATA | 1.06
TCGCGGTGG | 1.06
ACAATAGGAC | 1.11
CTTTGTGAAC | 1
CGCGTGTGAA | 1
TATCGACGAT | 1.04
CCACTCCTGG | 1.07
CCTGTTCGAG | 0.95
ACTTTCTTGT | 0.989
GGACGTTAGC | 1.02
GCGGTAGTGG | 0.976
ACCCTATGAC | 1.04
GCGGTGCGGT | 0.972
TGGCCCACCA | 1
GGGCCAGGTT | 1.02
CCGGACTGAG | 1.04
ATCCTCAAAA | 1.92
GGTCCAAA | 1.01
CTGAATAGCG | 1.01
GATAACCCTG | 0.964
ATTAGCAATC | 3.36
AAGACTGA | 1.06
AGTGGCCTG | 1.02
CCTTTTACAC | 1.03
GTCGCTACTG | 0.955

Sequence | switch fluorescence ratio
CTAGGTTTTT | 1.01
ATGTCGAGTT | 1.04
AGGCCTAAGG | 0.954
TCGGCTAGCG | 0.957
GCAGTTCGCT | 0.976
TCCACTTGTG | 1.02
GAACCGGGGA | 0.95
GAGCAGGATA | 1.04
AGAAGGAGG | 0.966
TCGTAAGGGA | 1.02
CGACTGTATG | 0.994
GACCAGTTAT | 1.01
GGGAGGGGAC | 1.01
GGCTGGGTCC | 0.959
CAGCTCGGGT | 0.977
AACAACCAGA | 1.03
AAATAAGTT | 1.04
GCGCTATTCG | 1.01
TGCCAATAGT | 1.1
CTTATCCCTG | 0.983
GTTCTATGAA | 0.991
TCGACACCGA | 1.08
CATGAAATTT | 0.989
TGTCGGGGCG | 0.973
GCCAACTGGG | 1.02
AGGTCTTCAC | 1.02

Sequence | switch fluorescence ratio
CTCTCGGGCA | 1.14
AACTTAGGGT | 0.939
GAATAGACAC | 1.03
TAGGCCAA | 0.961
TGCACAATC | 1.14
GTAGTACAT | 0.985
ACGGGATAGG | 0.995
GGCTGATATA | 1.02
CACACATTTT | 0.971
CCGACTAGGA | 0.985
TAAGTCCCTG | 1.01
GCGAGAGAGC | 1.01
AGAGTCAGCT | 0.956
GTGGTCATCT | 0.976
AGATGCGTGT | 0.999
GTTCCTCTTT | 1.06
GTGTAAGTTA | 1.01
GGTGAACTAG | 0.996
TTTCGGGCG | 1.09
AGCACTTCCC | 1.76
GTTTACAAGA | 1.02
CTCAGAGCAG | 1.24
AGAATGGCTC | 0.967
CTTTTACGCA | 1.32
TGCCGTGGTT | 0.962
AAGTGTACTT | 1.02

Sequence | switch fluorescence ratio
GCAATTAAGA | 1.07
CGGTTGCAGG | 1.04
ATCGACGTGC | 1.08
TAAAGTCTG | 0.935
TTGGAGCGT | 1.03
CCCACTGGGC | 1.05
TGTTGAGAGA | 1
AAGACCCTTG | 0.988
TTGACATACG | 1.12
GGCGGCTATC | 0.975
TAAGAAGGCA | 1.03
CTGTGAACAG | 1.03
CATAAGTGG | 1
GAACTTACAC | 1.24
CGGACCCGAT | 0.958
TTTTTAACCA | 0.985
CATTAGTGTG | 0.996
CTAAGTAATC | 1.44
AGATTGGTAG | 0.971
GTGACTCTTG | 1.01
CAACTGTCAC | 1.22
ATGGGGAATC | 0.983
ACAGGCTGTG | 0.945
ACTGCAGGGT | 0.962
TTGATATTAT | 0.99
AATATCAACT | 0.986

Sequence | switch fluorescence ratio
TCCTCGAAGG | 1.11
TCAACCCAGA | 1.05
CTTGGGGATA | 1.03
ACAATGTACT | 1.11
TTCGCCGGGC | 1.68
TACTTACAAC | 1.17
GTTTCAAGGT | 1.06
AGGTTGGAAT | 1.01
ATGGCATTCT | 0.957
GAGAACTTTA | 0.997
GCATCACTAT | 1.04
AGTGTTGCGT | 0.943
GCCCGCGTT | 1.17
GGGCCTCAGG | 0.966
CAGTCTGTAC | 1.65
TATAATAGTG | 0.939
TGCCCAGGGC | 1.02
CGTACCGAG | 1.01
TAAGTGTGAT | 1.01
CGTGTCCGTA | 1.05
CATTAAGTCC | 0.988
GAGCGCCTTT | 1.03
TGTATATCGT | 1.12
TGACTAATTA | 1.1
TAATTTTAT | 0.946
GATAAATCCG | 0.997

Sequence | switch fluorescence ratio
GACTCTAATG | 0.998
CAGCCGCCTA | 1.45
CGAATGTCGG | 1.02
CCTCTTAAGT | 1.16
ACGGAGTTTC | 1.13
AAGTGCAAGT | 1.01
CCTGCGGTG | 1.29
CGATACACGG | 0.978
CGCAAGTGCA | 1.22
CTCTCTGTTT | 1.03
GTTGTCCATT | 0.97
ATGGGGTAAA | 0.968
GATGAGTCGT | 1.01
CGTATCGGCA | 1.05
GGTTATACGT | 0.997
GATGTGGCGG | 1.01
CGGGCGTGGG | 0.986
ACTGAGAACC | 1.04
GGAGTTCGTA | 0.94

— the supplement of paper PMC10126150
